Laboratory results as given in article PMC4336329 (PLoS ONE, 2015).
Out of some 310,000 compounds screened, about 14,000 (4.5%) showed an effect of 50% or more. Effects have a minus sign here. The list shows a part of the results.

Target: human ether-à-go-go-related gene (hERG) potassium channel (human, UniProt Q12809)
Test: primary screen, population patch clamp on CHO cells stably expressing hERG
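Further: peak tail current of the secondary pulse compared with the same well before compound.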

human ether-à-go-go-related gene (hERG) potassium channel, sequence (Q12809 whole entry, looked up): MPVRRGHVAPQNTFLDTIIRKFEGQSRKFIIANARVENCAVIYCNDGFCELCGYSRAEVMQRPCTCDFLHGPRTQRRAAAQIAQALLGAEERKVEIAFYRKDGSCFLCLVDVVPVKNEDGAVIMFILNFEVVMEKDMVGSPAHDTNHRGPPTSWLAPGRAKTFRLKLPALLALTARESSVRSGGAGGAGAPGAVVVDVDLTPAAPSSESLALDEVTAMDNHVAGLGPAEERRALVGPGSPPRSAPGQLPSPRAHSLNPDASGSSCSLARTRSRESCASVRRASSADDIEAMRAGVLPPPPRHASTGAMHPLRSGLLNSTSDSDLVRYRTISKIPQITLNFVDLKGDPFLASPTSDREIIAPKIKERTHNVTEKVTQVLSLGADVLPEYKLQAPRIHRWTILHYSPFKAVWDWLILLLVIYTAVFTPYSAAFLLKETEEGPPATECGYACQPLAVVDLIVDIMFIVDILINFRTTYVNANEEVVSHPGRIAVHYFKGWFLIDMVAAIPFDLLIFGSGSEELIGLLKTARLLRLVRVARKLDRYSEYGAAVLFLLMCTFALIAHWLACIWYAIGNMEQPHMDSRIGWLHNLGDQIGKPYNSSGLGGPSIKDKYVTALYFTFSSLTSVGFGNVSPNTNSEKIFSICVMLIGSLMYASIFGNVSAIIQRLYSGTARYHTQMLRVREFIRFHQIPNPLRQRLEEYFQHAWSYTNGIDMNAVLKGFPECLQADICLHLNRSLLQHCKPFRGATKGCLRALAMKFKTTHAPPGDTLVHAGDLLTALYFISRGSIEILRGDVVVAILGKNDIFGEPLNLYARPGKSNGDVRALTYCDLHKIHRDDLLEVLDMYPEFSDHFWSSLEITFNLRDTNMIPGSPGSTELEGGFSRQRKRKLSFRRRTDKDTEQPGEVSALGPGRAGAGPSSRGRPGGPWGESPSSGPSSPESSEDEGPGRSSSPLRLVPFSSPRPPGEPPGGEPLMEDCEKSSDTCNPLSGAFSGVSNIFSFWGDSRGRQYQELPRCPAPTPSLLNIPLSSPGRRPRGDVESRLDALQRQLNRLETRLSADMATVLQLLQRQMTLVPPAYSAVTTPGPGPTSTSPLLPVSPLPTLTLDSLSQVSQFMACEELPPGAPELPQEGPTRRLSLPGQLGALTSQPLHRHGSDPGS

SMILES	hERG current change (%, negative = inhibition) at 10uM [%]
CC(=O)Nc1ccc2nc(NC(=O)c3cccnc3)sc2c1	9.49
CN(C)c1ccc(/C=C/c2nc3ccccc3s2)cc1	17.7
Clc1cccc(NCc2nnc(SCc3ccc(Cl)cc3Cl)o2)c1	-2.87
CN(C)CCNCc1ccc(OC2CCCC2)cc1.Cl	-5.02
O=C(O)c1ccccc1C(=O)Nc1ccccc1NC(=O)c1ccccc1C(=O)O	4.73
CNC(=O)c1ccsc1NC(=O)CS(=O)(=O)c1ccccc1	-6.08
Clc1cc(Cl)c2nc(N3CCOCC3)sc2c1	4.3
O=C(CN1C(=O)C(=O)N(C2CCCC2)C1=O)Nc1ccc(Cl)cc1C(F)(F)F	-2.38
O=C(O)c1ccc(/C=C2/SC(=S)N(Cc3ccccc3)C2=O)cc1	15.9
Cc1nnc(NNS(=O)(=O)c2ccc(Cl)cc2)[nH]c1=O	-17.3
Cc1ccccc1S(=O)(=O)Cc1ccc(C(=O)N2CCN(c3ccccc3F)CC2)o1	-40.7
CC1N=C(N)C(c2nc3ccccc3n2C)=C1O (stereo not drawn)	17.7
Cc1csc(=S)n1-c1ccccc1	12.8
CCCC(=O)Nc1ccc(C(=O)NNC(=S)NC(=O)c2cccs2)cc1	1.72
Cn1ncc([N+](=O)[O-])c1C(=O)Nc1ccn(Cc2ccccc2F)n1	-9.33
COc1ccccc1C(=O)Nc1c2c(nn1-c1cccc(C)c1C)CS(=O)C2 (stereo not drawn)	-29.4
Cc1ccc(N=Nc2cc(C)ccc2O)c(C)c1	2.49
COC(=O)[C@H]1C[C@H](C(=O)O)[C@@H](C)C1(C)C	11.9
CCOC(=O)C1(CCOC)CCN(Cc2ccc(C3CCCCO3)s2)CC1 (stereo not drawn)	-21.4

SMILES	hERG current change (%, negative = inhibition) at 10uM [%]
O=C(CSc1nc2ccccc2s1)NC1CCCc2ccccc21 (stereo not drawn)	3.19
COc1ccc(CCNS(=O)(=O)c2cn(C)c(=O)n(C)c2=O)cc1	-0.217
O=[N+]([O-])c1cc(CN2CCC(O)CC2)ccc1Cl	9.08
Cc1csc2nc3cc(C(N)=O)ccc3c(=O)n12	-0.675
O=C1c2ccccc2C(=O)N1CCc1c[nH]c2ccccc12	4.46
COc1ccc(Cl)cc1NC(=O)CN(C)CC(=O)NC(C)c1ccccc1 (stereo not drawn)	-13
O=S(=O)(Nc1nc2ccccc2nc1-[n+]1ccccc1)c1ccc(Cl)cc1.[Cl-]	10.5
Cc1ccccc1N1CC(C(=O)O)CC1=O (stereo not drawn)	14.1
Cc1ccc(-n2ncc3c2CC(C)(C)CC3NC(=O)c2ccccn2)cc1 (stereo not drawn)	-73.7
CCCNC(=O)CS(=O)Cc1nc(-c2cccc(OC)c2)oc1C (stereo not drawn)	9.57
O=C(c1cc(COc2ccc(-n3cncn3)cc2)on1)N1CCCC1	-12
Cc1cc(Cl)ccc1N(CC(=O)NCc1ccc2c(c1)OCO2)S(C)(=O)=O	-4.16
Cc1ccc2nc(-c3ccc(NC(=O)CSc4nc(N)cc(=O)[nH]4)cc3)sc2c1	0.805
COc1cccc(-c2nc(-c3ccc4c(c3)-c3ccccc3S4(=O)=O)c(-c3ccccc3)[nH]2)c1OC	0.903
CCC(=O)OCC(=O)Nc1cc([N+](=O)[O-])ccc1OC	-0.573
CCc1c(C)c(C#N)c2nc3ccccc3n2c1NCCOC	-36.9
O=C(NNC(=O)c1ccccc1O)c1cccc(Br)c1	17.1
CCC1Oc2ccc(C)cc2N(CC(=O)NCCN2CCCCCC2)C1=O (stereo not drawn)	-6.6
CCn1c(SCC(=O)Nc2nccs2)nnc1-c1ccc(S(=O)(=O)N2CCCCC2)cc1	12.5

SMILES	hERG current change (%, negative = inhibition) at 10uM [%]
COc1cc(C(=O)Nc2nc(-c3ccc(F)cc3)cs2)ccc1OCC(=O)N1CCOCC1	-53.3
O=C(O)c1cc(N/N=C/C=C/c2ccccc2)ccc1Cl	28.3
COc1ccc(OS(=O)(=O)c2ccc(N3C(=O)CCC3=O)cc2)cc1	11.1
COC(=O)c1ccccc1NC(=O)CN1CCN(c2ccccn2)CC1	-15.8
CCc1[nH]nc(C(=O)NC2CCCc3c2cnn3-c2cc(C)cc(C)c2)c1C (stereo not drawn)	-21.2
CC1CCc2c(nc3ncnn3c2NCCN(C)C)C1.Cl (stereo not drawn)	18.6
CC1(C)CN(c2cccc(Br)c2)C1=O	7.96
CCN(CC)c1ccc(C(=O)N/N=C(\C)c2cccc(OC)c2)cc1	-9.73
CCCOC(=O)C1=C(C)NC(=O)NC1c1cccc2ccccc12 (stereo not drawn)	4.49
COc1nccnc1NS(=O)(=O)c1ccc(N=Cc2c(C)[nH]n(-c3ccc(C)c(C)c3)c2=O)cc1	-1.25
O=C(NCCCc1ccccc1)C1CCC(=O)N(Cc2ccc(Cl)cc2)C1 (stereo not drawn)	-61.3
S=C(Nc1cccc(Cl)c1Cl)NC1CCN(Cc2ccccc2)CC1	17.9
COC(=O)CC1(CC(=O)OC)C(=O)N(c2ccccc2)C(=O)N(c2ccccc2)C1=O	11.7
CCCCc1c(C)c(C#N)c2nc3ccccc3n2c1Nc1c(C)n(C)n(-c2ccccc2)c1=O	0.703
CN(c1ccccc1)c1nc(N)c([N+](=O)[O-])c(Nc2ccc(F)cc2)n1	13.7
Oc1oc(C=Nc2ccc(F)cc2F)c2ccccc12	15.5
CC1(C)NC(=O)N(CC(O)CN2CCOCC2)C1=O (stereo not drawn)	-4.81
C/C=C/c1ccc(OCCn2nnc3ccccc32)c(OC)c1	-2.9
COc1ccc(NC(=O)c2cc(=O)c3ccccc3o2)cn1	-17.3
